Assay results published in PubChem BioAssay (NCATS).
“And” between values parts separate entries of the source, which are not always exact repeats. Equal values may be shown once. The shares of active, inactive and inconclusive entries below differ from those in the screen. For part of these data: Where the call is inconclusive, the potency comes from a doubtful curve fit. The source made the active and inactive calls. The call rests on the fitted dose curve; in most records, active means well fitted curve in the direction sought with a large enough effect; inconclusive means small, poorly fitted or top-dose-only effect, or another doubt; inactive means no such curve, though single readings can be large; an effect the other way counts as inactive or inconclusive.

Experiments:
[1] = P-glycoprotein substrates identified in KB-8-5-11 adenocarcinoma cell line, qHTS therapeutic library screen (AID 1346987); further: nearly all actives have a fitted effect of over 65% in size; on activity change, negative = cytotoxicity: on the % scale 0 is the no-effect control and ±100 the full control effect
Method in brief: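 KB-8-5-11, a colchicine-selected P-gp-overexpressing KB-3-1 subline, was grown without colchicine for the assay. Cells were seeded at 500 cells/well, dosed in concentration-response and incubated 72 h at 37 degree C, 5% CO2. Viability was read by CellTiter-Glo luminescence.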

[2] = test system: Zika virus NS2B-NS3 protease (unlinked complex); assay: Primary screen GU Rhodamine qHTS for Zika virus inhibitors: Unlinked NS2B-NS3 protease assay (AID 1347159); further: nearly all actives have a fitted effect of over 60% in size; on activity change, negative = inhibition: on the % scale 0 is the no-effect control and ±100 the full control effect
Method in brief: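 Noncovalent NS2B hydrophilic domain–NS3 protease domain complex (25 nM) preincubated 15 min at room temperature with compounds (up to 114 microM) in 10 mM Tris-HCl pH 8.0, 0.01% Tween 20; 1.5 microM Rhodamine110 substrate added, fluorescence change over 15 min fitted to Hill equation.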

[3] = test system: Zika virus NS2B-NS3 protease (linked construct); assay: Primary screen NINDS Rhodamine qHTS for Zika virus inhibitors (AID 1347160); details: activity change, negative = inhibition: at 57.1 µM (top of the series) unless noted; further: nearly all actives have a fitted effect of over 55% in size; on activity change, negative = inhibition: on the % scale 0 is the no-effect control and ±100 the full control effect
Method in brief: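 Purified linked NS2B-NS3 protease (NS2B hydrophilic domain joined to NS3 protease by flexible linker), 25 nM in 10 mM Tris-HCl pH 8.0, 0.01% Tween 20. Compounds titrated, 15 min preincubation at room temperature; 1.5 microM Rhodamine110 substrate, FITC fluorescence change over 15 min.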

[4] = Primary qHTS for inhibitors of nuclear receptor binding SET domain protein 2 (NSD2) in an RCH-ACV wild type WT cells (2C) (AID 1645877); details: activity change, negative = cell killing: at 44.9 µM (top of the series) unless noted; further: nearly all actives have a fitted effect of over 70% in size
CRL-7250 = normal cell line; assay: Cytotoxic Profiling of Annotated Libraries Using Quantitative High-Throughput Screening (AID 1296008); details: Five cell lines viability, CellTiter-Glo ATP luminescence, 48-72 h; max response: stronger effect = lower value; further: nearly all actives have a fitted effect of over 60% in size
Method in brief: (§1)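 Cells exposed to compounds for 48 or 72 hr at 37 degrees Celsius. Viability read as ATP-coupled luminescence with CellTiter-Glo after 10 min at room temperature.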

KB-3-1 = assay: as above; details: Five cell lines viability, CellTiter-Glo ATP luminescence, 48-72 h; max response: stronger effect = lower value
Method in brief: as §1

CASKI = assay: Primary qHTS to identify gynecologic anti-cancer compounds using libraries of approved drugs and bioactive compounds (AID 1345084); details: Gynecologic cancer cell panel viability, ATPlite luminescence, 48 h; series mostly up to 57.5 µM; further: nearly all actives have a fitted effect of over 55% in size; on activity change, negative = cytotoxicity: on the % scale 0 is the no-effect control and ±100 the full control effect
Method in brief: (§2)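 Cells, 1,000 per well, plated 16 h, then exposed 48 h at 37 C to compounds. Viability by ATPlite luminescence after 15 min at room temperature.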

Es-2 = assay: as above; details: Gynecologic cancer cell panel viability, ATPlite luminescence, 48 h; series mostly up to 57.5 µM
Method in brief: as §2

Hek293T = assay: as above; details: Gynecologic cancer cell panel viability, ATPlite luminescence, 48 h, control line for the selectivity index; activity change, negative = cytotoxicity: at 57.5 µM (top of the series) unless noted
Method in brief: as §2

PA-1 = assay: as above; details: Gynecologic cancer cell panel viability, ATPlite luminescence, 48 h; series mostly up to 57.5 µM
Method in brief: as §2

SKOV3 = assay: as above; details: Gynecologic cancer cell panel viability, ATPlite luminescence, 48 h; series mostly up to 57.5 µM
Method in brief: as §2

Tov112D = assay: as above; details: Gynecologic cancer cell panel viability, ATPlite luminescence, 48 h; series mostly up to 57.5 µM
Method in brief: as §2

[5] = Primary fluorescence-based thiol-reactive (MSTI) qHTS assay for identification of artifact compounds. (AID 1845221);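 further: thiol-reactive compounds lower the probe fluorescence signal; nearly all actives have a fitted effect of over 65% in size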
Method in brief: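 MSTI probe at 4 uM final in 2% DMSO/PBS pH 7.4; compounds, 1 h at room temperature in dark. Fluorescence Ex/Em 525/598 nm, normalised to Acetyl-MSTI and MSTI, fitted to 4-parameter Hill.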

[6] = Primary qHTS for inhibitors of nuclear receptor binding SET domain protein 2 (NSD2) in an isogenic RCH-ACV NSD2 p.E1099K mutant (9B) (AID 1645876); further: nearly all actives have a fitted effect of over 70% in size
NIH3T3 = assay: Cytotoxic Profiling of Annotated Libraries Using Quantitative High-Throughput Screening (AID 1296008); details: Five cell lines viability, CellTiter-Glo ATP luminescence, 48-72 h; max response: stronger effect = lower value; further: nearly all actives have a fitted effect of over 60% in size
Method in brief: as §1

JEG-3 = assay: Primary qHTS to identify gynecologic anti-cancer compounds using libraries of approved drugs and bioactive compounds (AID 1345084); details: Gynecologic cancer cell panel viability, ATPlite luminescence, 48 h; series mostly up to 57.5 µM; further: nearly all actives have a fitted effect of over 55% in size
Method in brief: as §2

CAOV3 = assay: as above; details: Gynecologic cancer cell panel viability, ATPlite luminescence, 48 h; activity change, negative = cytotoxicity: at 57.5 µM (top of the series)
Method in brief: as §2

OV90 = assay: as above; details: Gynecologic cancer cell panel viability, ATPlite luminescence, 48 h; series mostly up to 57.5 µM
Method in brief: as §2

Tov-21-G = assay: as above; details: Gynecologic cancer cell panel viability, ATPlite luminescence, 48 h; activity change, negative = cytotoxicity: at 57.5 µM (top of the series) unless noted
Method in brief: as §2
Potency means the concentration at half of the fitted maximal effect; tags describe the fitted curve by direction and shape.

COCCN1CCN(Cc2ccc(-c3n[nH]c4c3C(=O)c3c(NC(=O)NN5CCOCC5)cccc3-4)cc2)CC1
inconclusive: Potency [2] 44.7 µM [inhibitor, partial curve] | Potency [3] 0.1 µM [inhibitor, full curve, poor fit] | Potency (CRL-7250) 0.146 µM [inhibitor, full curve] | Potency (SKOV3) 0.158 µM [cytotoxic, full curve, poor fit]
active: Potency [1] 2.59 µM | Potency [4] 36.5 nM and 52.5 nM | Potency (KB-3-1) 0.146 µM | Potency (CASKI) 0.282 µM | Potency (Es-2) 0.316 µM | Potency (Hek293T) 0.178 µM | Potency (PA-1) 0.251 µM | Potency (Tov112D) 0.316 µM

O=C(CC1C(=O)Nc2ccccc21)OC[C@H]1O[C@@H](OCCc2ccc(O)cc2)[C@H](O)[C@@H](O)[C@@H]1O (stereo partly drawn)
active: Potency [5] 9.22 µM
inconclusive: Potency (CRL-7250) 14.2 µM [inhibitor, single point] | Potency (PA-1) 20 µM [cytotoxic, single point] | Potency (SKOV3) 0.562 µM [rising, partial curve, poor fit]
inactive: Potency [1] | Potency [3] | outcome (KB-3-1)

CCCc1ccc(OCC(=O)N(Cc2nc(-c3cccnc3)no2)C(C)C)cc1
active: Potency (CRL-7250) 23.1 µM
inconclusive: Potency [1] 16.4 µM [inhibitor, partial curve] | Potency [6] 16.3 µM [inhibitor, single point] | Potency [4] 7.28 µM [inhibitor, partial curve] | Potency (KB-3-1) 29.1 µM [inhibitor, single point] | Potency (Hek293T) 22.4 µM [cytotoxic, partial curve, poor fit]

COc1cc(OC)c(C=CS(=O)(=O)Cc2ccc(OC)c(NCC(=O)O)c2)c(OC)c1
inconclusive: Potency (CRL-7250) 0.118 µM [inhibitor, full curve]
active: Potency [1] 0.264 µM | Potency (NIH3T3) 105 nM

COc1cc(O)c(C(=O)CCc2ccc(O)cc2)c(O[C@@H]2O[C@H](CO)[C@@H](O)[C@H](O)[C@H]2O)c1
inconclusive: Potency [3] 17.8 µM [inhibitor, single point] | Potency [6] 15.9 µM [inhibitor, single point] | Potency [4] 15.9 µM [inhibitor, single point] | Potency (CRL-7250) 14.2 µM [inhibitor, single point] | Potency (KB-3-1) 15.9 µM [inhibitor, single point] | Potency (Es-2) 14.1 µM [cytotoxic, single point] | Potency (Hek293T) 14.1 µM [cytotoxic, single point] | Potency (PA-1) 17.8 µM [cytotoxic, single point] | Potency (SKOV3) 17.8 µM [cytotoxic, single point]
inactive: Potency [2] | Potency (JEG-3)

CO/N=C(/C(=O)N[C@@H]1C(=O)N2C(C(=O)O)=C(Cn3ccc(=N)n3CCO)CS[C@H]12)c1csc(N)n1
inconclusive: Potency [5] 1.5 µM [inhibitor, full curve, poor fit] | Potency (CRL-7250) 0.0041 µM [inhibitor, full curve, poor fit] | Potency (CAOV3) 39.8 µM [rising, single point]
inactive: Potency [1] | max response (KB-3-1) -6.11% | Potency (JEG-3)

Cc1cc(N2CCOCC2)cc2[nH]c(-c3c(NC[C@@H](O)c4cccc(Cl)c4)cc[nH]c3=O)nc12
active: Potency [1] 14.8 µM and 18.4 µM | Potency (NIH3T3) 7.43 µM and 13 µM | Potency (SKOV3) 14.1 µM
inconclusive: Potency [2] 39.8 µM [inhibitor, full curve, poor fit] | Potency (CRL-7250) 29.1 µM [inhibitor, single point] | Potency (CAOV3) 31.6 µM [cytotoxic, single point] | Potency (CASKI) 25.1 µM [cytotoxic, partial curve, poor fit] | Potency (Hek293T) 20 µM [cytotoxic, partial curve, poor fit] | Potency (OV90) 1.78 µM [cytotoxic, full curve] | Potency (Tov-21-G) 25.1 µM [cytotoxic, partial curve] | Potency (Tov112D) 39.8 µM [cytotoxic, single point]

CCCCCCOc1cc2c(cc1N(C)c1ncc(C(=O)O)cn1)C(C)(C)CCC2(C)C
active: Potency [3] 7.94 µM
inconclusive: Potency [1] 20.6 µM [inhibitor, single point] | Potency (KB-3-1) 18.4 µM [inhibitor, single point]
inactive: Potency [6] | Potency [5] | max response (CRL-7250) 4.99% | Potency (PA-1)
